Source: PubChem BioAssay (Tox21)
Where “and” joins values, the source holds several entries; their conditions need not be identical. Identical values can stand only once. Inconclusive means that the source gave no clear call. Such entries were picked first, then a sample of the others. Potencies of inconclusive entries are doubtful fits and often do not repeat. Calls of active or inactive are those of the source. Calls follow the shape of the dose curve; as a rule, active = well fitted cell-killing curve with a large enough effect in the repeat runs; inconclusive = weak or mixed curves; inactive = no such curve, though single readings can be large or run the other way.

assay: qHTS assay to identify small molecule antagonists of the peroxisome proliferator-activated receptor delta (PPARd) signaling pathway - cell viability counter screen (AID 743213); details: PPARd-bla HEK293H viability, CellTiter-Glo luminescence, 17 h; viability change, negative = cytotoxic: at 62 µM (top of the series) unless noted; also: nearly all actives have a fitted effect of over 50% in size
From the text: U.S. Tox21 Program National Center for Advancing Translational Sciences [NCATS] NIH Chemical Genomics Center [NCGC] U.S. Environmental Protection Agency [EPA] National Institutes of Environmental Health Sciences [NIEHS] National Toxicology Program [NTP] U.S. Food and Drug Administration [FDA] Tox21 Assay Overview: The peroxisome proliferator-activated receptors (PPARs) are lipid-activated transcription factors of the nuclear receptor superfamily with three distinct subtypes namely PPAR alpha, PPAR delta (PPARd) and PPAR gamma. All these subtypes heterodimerizes with Retinoid X receptor (RXR) and have different physiological functions. […] To identify the compounds that inhibit PPAR-delta signaling, GeneBLAzer PPAR delta UAS-bla HEK293H cell line (Invitrogen, Carlsbad, CA, USA) containing a beta-lactamase reporter gene under the control of an Upstream Activator Sequence (UAS) was used to screen the Tox21 compound library. The cytotoxicity of the Tox21 compound library against the PPARd-bla cell line was tested in parallel by measuring the cell viability using CellTiter-Glo assay (Promega, Madison, WI) in the same wells.
Tox21 Assay Protocol Summary: PPARd-bla cells were dispensed at 3000 cells/5uL/well in 1536-well black wall/clear bottom plates using a Multidrop Combi (Thermo Fisher Scientific, Waltham, MA) dispenser. After the assay plates were incubated at 37 C and 5% CO2 for 5 h, 23 nL of compounds dissolved in DMSO, positive controls or DMSO only was transferred to the assay plate by a Pintool station (Kalypsys, San Diego, CA), followed by addition of 1ul L165041 (300 nM, final concentration in the wells). The assay plates were incubated at 37 C for 17 h, and then 1 uL of LiveBLAzerTM B/G FRET substrate was added using a Bioraptr Flying Reagent Dispenser (FRD) workstation (Beckman Coulter, Indianapolis, IN, USA). The assay plates were incubated at room temperature for 2 h and fluorescence intensity was measured by an Envision plate reader (PerkinElmer, Shelton, CT). For cell viability readout that measures cytotoxicity, 3 ul/well of CellTiter-Glo reagent was added into the assay plates using a Bioraptr FRD. After 30 min incubation at room temperature, the luminescence intensity in the plates was measured using a ViewLux plate reader (PerkinElmer).
% is scaled to controls: 0 for no effect and ±100 for the full control effect; potency is read from the fitted curve at half-maximal effect; tags tell the direction and shape of the fitted curve.

| SMILES | Potency | viability change, negative = cytotoxic |
| --- | --- | --- |
| CC1=CC[C@H]2C[C@@H]1C2(C)C | inactive and inconclusive: 61.7 µM [cytotoxic, partial curve, poor fit] |  |
| O=C(O)CP(=O)(O)O | inconclusive: 1.33 µM [cytotoxic, partial curve, poor fit] |  |
| Cc1ccc(-n2nc(C(C)(C)C)cc2NC(=O)Nc2ccc(OCCN3CCOCC3)c3ccccc23)cc1 | inconclusive: 7.5 µM [cytotoxic, single point] |  |
| COc1cc(Nc2c(C#N)cnc3cc(OCCCN4CCN(C)CC4)c(OC)cc23)c(Cl)cc1Cl | inconclusive: 0.668 µM [cytotoxic, single point] |  |
| CC1(C)CC(N)CC(C)(CN)C1 (stereo not given) | inconclusive: 2.49 µM [cytotoxic, full curve, poor fit] |  |
| CC(C)COC(=O)COc1cc(Cl)c(Cl)cc1Cl |  | inactive: -4.04% |
| NCC1CCCC(CN)C1 (stereo not given) |  | inactive: 0.505% |
| COc1cc(C(=O)N2CCCCCCC2)cc(OC)c1OC |  | inconclusive: 31.4% |
| Cc1c(N)cccc1C(F)(F)F | inconclusive: 33.5 µM [rising, single point] |  |
| CCC(=O)OC(=O)CC |  | inactive: 23.1% |
| C1COCCO1 |  | inactive: 12% [at 80.4 µM] |
| CCCCN1CCCC[C@H]1C(=O)Nc1c(C)cccc1C | inconclusive: 33.5 µM [cytotoxic, partial curve, poor fit] |  |
| CC(=O)Oc1c(C)c(C)c2c(c1C)CC[C@@](C)(CCC[C@H](C)CCC[C@H](C)CCCC(C)C)O2 | inconclusive: 49 µM [cytotoxic, partial curve, poor fit] |  |
| CC(=O)OCCN(CCOC(C)=O)c1ccc(N=Nc2ccc([N+](=O)[O-])cc2C#N)cc1 |  | inactive: 17.1% |
| CCc1cc2cc(OC)c(OC)cc2c(Cc2ccccc2)n1 | inconclusive: 0.298 µM [cytotoxic, single point] |  |
| O[C@@H](CNC[C@H](O)[C@H]1CCc2cc(F)ccc2O1)[C@@H]1CCc2cc(F)ccc2O1 | active: 23.7 µM |  |
| Cc1ccc(C(=O)Oc2ccc(C(O)CNC(C)(C)C)cc2OC(=O)c2ccc(C)cc2)cc1 (stereo not given) | inconclusive: 0.531 µM [cytotoxic, full curve, poor fit] |  |
| C=C(C)C(=O)OCCN(CC)CC | inconclusive: 0.435 µM [cytotoxic, full curve, poor fit] |  |
| CCCC(O)C(CC)CO (stereo not given) | inconclusive: 1.1 µM [cytotoxic, single point] |  |
| CNC(=O)C(c1ccccc1)c1ccccc1 | inconclusive: 12.3 µM [cytotoxic, single point] |  |

| SMILES | Potency | viability change, negative = cytotoxic |
| --- | --- | --- |
| Nc1ccncc1N | inconclusive: 33.5 µM [cytotoxic, partial curve, poor fit] |  |
| CCc1oc2ccccc2c1C(=O)c1cc(Br)c(O)c(Br)c1 | inconclusive: 13.3 µM [cytotoxic, single point] |  |
| O=C1NCCN1CCO | inconclusive: 22.7 µM [cytotoxic, single point] |  |
| C(=C\c1ccccc1)/CN1CCN(C(c2ccccc2)c2ccccc2)CC1 | inconclusive: 0.133 µM [cytotoxic, partial curve, poor fit] |  |
| CC(CCl)OP(=O)(OC(C)CCl)OC(C)CCl (stereo not given) |  | inconclusive: -18.6% [cytotoxic] |
| ON=C1CCCC1 |  | inactive: -0.0098% [at 80.4 µM] |
| CC(C)(C)OC(=O)N1C[C@@H](F)C[C@H]1C(=O)O |  | inactive: 2.26% [at 80.4 µM] |
| CCC(Cl)CC(Cl)C(Cl)C(Cl)C(Cl)C(C)Cl (stereo not given) | inconclusive: 7.54 µM [cytotoxic, single point] |  |
| CN1CCCCC1CCN1c2ccccc2Sc2ccc(S(C)=O)cc21 (stereo not given) | inconclusive: 33.5 µM [cytotoxic, single point] |  |
| CC(C)(N=C=O)c1cccc(C(C)(C)N=C=O)c1 | inconclusive: 1.09 µM [cytotoxic, single point] |  |
| O=C(O)c1cccc(C(=O)O)c1C(=O)O | inconclusive: 19.7 µM [cytotoxic, single point] |  |
| CCCOC(=O)c1c(Cl)c(Cl)c(Cl)c(Cl)c1C(=O)OCCC |  | inactive: 14% |
| CCOCCC(=O)OCC |  | inactive: 16% [at 80.4 µM] |
| CC(C)=CCC1=C(O)c2ccccc2C(=O)C1=O | inconclusive: 1.09 µM [cytotoxic, partial curve, poor fit] |  |
| O=C(O)c1cc(-c2ccccc2)nc2ccccc12 | inconclusive: 77.9 µM [cytotoxic, partial curve, poor fit] and inconclusive: 11.9 µM [cytotoxic, single point] |  |
| N=C(N)N |  | inactive: 2.88% |
| NNc1nc(-c2ccccc2)cs1 | inconclusive: 56.5 µM [cytotoxic, single point] |  |
| CN(C)CCCN1c2ccccc2CCc2ccccc21 | active: 24.5 µM and active: 26.6 µM |  |
| CCCCN1C[C@H](O)[C@@H](O)[C@H](O)[C@H]1CO |  | inactive: 14.2% |
| CO[C@H]1C=CO[C@@]2(C)Oc3c(C)c(O)c4c(O)c(c5c(c4c3C2=O)=NC2(CCN(CC(C)C)CC2)N=5)NC(=O)/C(C)=C\C=C/[C@H](C)[C@H](O)[C@@H](C)[C@@H](O)[C@@H](C)[C@H](OC(C)=O)[C@@H]1C | inconclusive: 0.17 µM [cytotoxic, full curve, poor fit] |  |
